Assay results from PubChem BioAssay AID1466 (National Center for Advancing Translational Sciences (NCATS), 2008).
Screen size: about 200,000 compounds; about 10 (0.005%) were called active. Inconclusive means that the source gave no clear call. Such entries were picked first, then a sample of the others. Calls follow the shape of the dose curve; as a rule, active = well fitted inhibition curve with a large enough effect; inconclusive = small, poorly fitted or top-dose-only effect, or effect the other way, or another doubt; inactive = no such curve, though single readings can be large or run the other way. Potencies beside an inconclusive call are fits to weak or partial responses and may not hold up.

Biological target: Lysosomal alpha-glucosidase (Homo sapiens) (UniProt P10253)
Experiment: qHTS Assay for Inhibitors of Human alpha-Glucosidase as a Potential Chaperone Treatment of Pompe Disease;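 as to activity change, negative = inhibition: plate controls were uninhibited enzyme wells for no effect and no-enzyme background for full effect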
Conditions: purified human GAA, 4-MU-alpha-glucoside fluorescence; activity change, negative = inhibition: at 76.9 µM (top of the series) unless noted
In short: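 Read-out is 4-methylumbelliferone fluorescence (Ex 365/Em 440 nm) after NaOH/glycine stop at pH 10. Enzyme 4 nM, substrate 400 uM, pH 5.0 citrate buffer, 20 min room temperature; AC50 from Hill-equation concentration-response.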
Potency is read from the fitted curve at half-maximal effect; tags tell the direction and shape of the fitted curve.

Row | SMILES | Potency | activity change, negative = inhibition
1 | CN(C)C(=O)COC(=O)c1cc(Cl)cc(Cl)c1N | inconclusive: 39.8 µM [activator, partial curve] | 
2 | O=C(CSc1ncn[nH]1)Nc1nc(-c2cccc([N+](=O)[O-])c2)cs1 |  | inactive: -24.7%
3 | CC(=O)Nc1ccc(Sc2ncnc3scc(-c4ccccc4)c23)cc1 | inconclusive: 56.2 µM [inhibitor, single point] | 
4 | Cc1nc2ccccc2c(=O)n1C1CCCCCC1 | inconclusive: 1 µM [inhibitor, full curve, poor fit] | 
5 | COc1ccc(-c2csc3ncn(-c4ccccc4)c(=O)c23)cc1OC | inconclusive: 50.1 µM [inhibitor, single point] | 
6 | COc1ccccc1S(=O)(=O)Cc1ccc(C(=O)N2CCN(c3ccccn3)CC2)o1 | inconclusive: 3.16 µM [inhibitor, partial curve, poor fit] | 
7 | O=C(CC(SCc1ccco1)c1ccc(O)cc1)c1cccs1 (configuration not stated) | inconclusive: 2.24 µM [inhibitor, full curve, poor fit] | 
8 | Nc1ncc(Br)cc1S(=O)(=O)NCCC(=O)Nc1cccc(Cl)c1 | inconclusive: 3.98 µM [inhibitor, full curve, poor fit] | 
9 | O=C(N/N=C/c1ccc2c(c1)OCO2)c1sc2cccc(Cl)c2c1Cl | inconclusive: 31.6 µM [inhibitor, single point] | 
10 | S=c1[nH]nc(-c2ccccc2)n1Cc1ccccc1 | inconclusive: 56.2 µM [inhibitor, single point] | 
11 | O=C(c1cc2ncc(Br)cn2n1)N1CCCCC1 | inconclusive: 11.2 µM [inhibitor, partial curve] | 
12 | Cc1nc2nc(-c3ccc(Cl)cc3)cn2nc1C | inconclusive: 12.6 µM [activator, partial curve] | 
13 | Cc1ccc(F)cc1NC(=O)c1c(-c2ccccc2)noc1C | inconclusive: 50.1 µM [inhibitor, single point] | 
14 | Cc1ccc(/C=N/NC(=O)c2cc(C3CC3)nc3ccccc23)o1 | inconclusive: 12.6 µM [activator, single point] | 
15 | COc1ccc(/C=N/NC(=O)c2ccc(N(C)S(=O)(=O)c3ccccc3)cc2)c(OC)c1 | inconclusive: 31.6 µM [inhibitor, single point] | 
16 | O=C(COc1ccccc1)Nc1ccc(N2CCN(C(=O)c3cccs3)CC2)cc1 |  | inconclusive: 15.5% [activator]
17 | CCOC(=O)N1CCN(C(=O)C2CC(c3cc(OC)ccc3OC)=NO2)CC1 (configuration not stated) | inconclusive: 3.98 µM [inhibitor, partial curve] | 
18 | COc1ccc(-c2nnn(CC(=O)N(CC(=O)NC3CCCC3)Cc3ccco3)n2)cc1OC |  | inconclusive: 16.1% [activator]
19 | Cc1ccc2nc3c(cc(C#N)c(=O)n3CC3CCCO3)c(=O)n2c1 (configuration not stated) | inconclusive: 3.98 µM [activator, full curve] | 
20 | Cc1ccc(N2C(=O)c3ccccc3C2C(=O)c2ccc(O)cc2O)cc1 (configuration not stated) |  | inconclusive: -15.6% [inhibitor]
21 | O=C(O)CSCC(=O)NCc1ccc(Cl)cc1 | inconclusive: 11.2 µM [activator, single point] | 
22 | Cc1ccc(-c2c(C)n([O-])c3c([n+]2=O)CCCCC3)o1 |  | inconclusive: 14.3% [activator]
23 | COc1ccc(-c2cn3c(C)c(C(=O)Nc4cc(NC(C)=O)ccc4OC)sc3n2)cc1 | inconclusive: 25.1 µM [activator, partial curve] | 

Row | SMILES | Potency | activity change, negative = inhibition
24 | COc1ccc(-n2cnc3cc(NS(=O)(=O)c4ccc(C)cc4)ccc32)cc1 | inconclusive: 35.5 µM [inhibitor, partial curve] | 
25 | CC(NC1CCCC1)c1ccccc1 (configuration not stated) | inconclusive: 0.891 µM [inhibitor, full curve] | 
26 | CCN(CC)C(=O)C1CCCN(C(=O)Nc2ccc3nsnc3c2)C1 (configuration not stated) | inconclusive: 39.8 µM [activator, partial curve, poor fit] | 
27 | CC(CC(=O)Nc1ncc([N+](=O)[O-])s1)c1ccccc1 (configuration not stated) |  | inconclusive: 6.68% [activator]
28 | COc1ccc(OC)c(S(=O)(=O)n2cnc3cc(C)c(C)cc32)c1 | inconclusive: 50.1 µM [inhibitor, single point] | 
29 | Cn1nccc1C(=O)Nc1sc2c(c1C(N)=O)CCCC2 | inconclusive: 44.7 µM [activator, partial curve] | 
30 | COc1ccc(N(CC(=O)N2CC=C(c3ccccc3)CC2)S(=O)(=O)c2c(C)noc2C)cc1 | inconclusive: 31.6 µM [inhibitor, single point] | 
31 | Cc1cc(O)c(C(C)C)cc1N=C1CSC(=O)N1 |  | inactive: 5.14%
32 | CCCCn1c(SCC(=O)Nc2cc(C(F)(F)F)cc(C(F)(F)F)c2)nnc1C(CC)N(C)C (configuration not stated) | inconclusive: 50.1 µM [inhibitor, single point] | 
33 | O=C(O)C1CC(=O)N(C2CCCCCC2)C1 (configuration not stated) | inconclusive: 31.6 µM [inhibitor, single point] | 
34 | Cc1ccc(NC(=O)c2cncc(Br)c2)c([N+](=O)[O-])c1 | inconclusive: 4.47 µM [inhibitor, single point] | 
35 | CC(C)CC[n+]1ccn(-c2nc3ccccc3nc2[N-]S(=O)(=O)c2ccccc2)c1 | inconclusive: 50.1 µM [activator, single point] | 
36 | Cc1ccc(Cl)cc1-n1c(=O)cc(N2CC(C)OC(C)C2)[nH]c1=O (configuration not stated) | inconclusive: 11.2 µM [inhibitor, single point] | 
37 | O=C(NCCc1cccc(Cl)c1)c1cccnc1 | inconclusive: 11.2 µM [inhibitor, single point] | 
38 | Cc1ccccc1C(=O)NC1CCN(C(=O)Nc2ccccc2Cl)CC1 | inconclusive: 5.01 µM [inhibitor, single point] | 
39 | COc1cnn(Cc2ccccc2)c(=O)c1SCc1ccccc1 |  | inconclusive: -15.5% [inhibitor]
40 | CCOC(=O)C1=C(c2ccccc2)NC(SCC(=O)Nc2ccccc2C)=C(C#N)C1c1ccco1 (configuration not stated) |  | inconclusive: -18.6% [inhibitor]
41 | CCCOc1ccc(-c2cc(C(=O)NCC3CCCO3)c3ccccc3n2)cc1 (configuration not stated) | inconclusive: 31.6 µM [activator, partial curve] | 
42 | c1ccc(C(c2nnnn2C2CCCCC2)N2CCc3ccccc3C2)nc1 (configuration not stated) |  | inconclusive: 18.1% [activator]
43 | COc1ccc(C2CC(c3cccs3)=NN2c2ccc(F)cc2)cc1OC (configuration not stated) | inconclusive: 35.5 µM [activator, partial curve] | 
44 | CC(=O)Oc1ccccc1C1=NN(C(C)=O)C(c2ccccc2)C1 (configuration not stated) | inconclusive: 35.5 µM [activator, single point] | 
45 | Clc1ccc(/C=C/c2nc3ccccc3[nH]2)cc1 | inconclusive: 35.5 µM [activator, partial curve] | 
46 | CCOc1ccccc1CN1CCC(CO)(CCOc2ccccc2)CC1 | inconclusive: 25.1 µM [inhibitor, single point] | 

Row | SMILES | Potency | activity change, negative = inhibition
47 | O=C(NNc1nc2ccccc2nc1C(F)(F)F)c1ccccc1 |  | inactive: -4.23%
48 | COc1cc(Nc2nc(-c3ccccc3)c3cc(C)ccc3n2)cc(OC)c1OC |  | inconclusive: -22.7% [inhibitor]
49 | Cc1cc(C(F)(F)F)nn1Cc1n[nH]c(=S)n1-c1ccc(Cl)cc1 | inconclusive: 12.6 µM [inhibitor, partial curve] | 
50 | CC(C)(C)n1nc2c(c1NC(=O)c1ccc(Br)o1)CS(=O)C2 (configuration not stated) | inconclusive: 50.1 µM [inhibitor, single point] | 
51 | CCOC(=O)C1=C(c2ccccc2)N=c2s/c(=C\c3ccco3)c(=O)n2C1c1cccs1 (configuration not stated) |  | inconclusive: -6.92% [inhibitor] [at 15.4 µM]
52 | CC(=O)N1c2c(cc(Br)cc2S(=O)(=O)N2CCN(c3ccccn3)CC2)CC1C (configuration not stated) | inconclusive: 7.08 µM [inhibitor, full curve, poor fit] | 
53 | NC(=O)COC(=O)c1ccc(S(=O)(=O)N2CCCCCC2)cc1 |  | inactive: -11.7%
54 | O=C(Nc1ccccc1)c1ccc2nc(-c3ccco3)c(-c3ccco3)nc2c1 |  | inactive: 0.0503%
55 | Oc1ccccc1-c1csc(-c2ccccc2)n1 |  | inactive: -6.94%
56 | CCCOc1ccc(N2C(=O)CC(N3CCN(CCN=CC4=C(O)CC(C)(C)CC4=O)CC3)C2=O)cc1 (configuration not stated) |  | inconclusive: 21.8% [activator]
57 | O=C(CCc1ccccc1)N/N=C/c1cccc(O)c1 |  | inconclusive: 12% [activator]
58 | CCCc1[nH]n(-c2nc3ccccc3s2)c(=O)c1C=NCCN1CCOCC1 | inconclusive: 3.16 µM [inhibitor, partial curve] | 
59 | O=C(COc1cccc(Cl)c1)NNC(=S)Nc1ccccc1 |  | inactive: 4.18%
60 | CC1CN(c2oc(COc3ccc(Cl)cc3Cl)nc2C#N)CC(C)O1 (configuration not stated) | inconclusive: 7.08 µM [inhibitor, single point] | 
61 | CCNc1nc(N)c(C(=C(C#N)C#N)c2ccccc2)s1 | inconclusive: 35.5 µM [activator, partial curve] | 
62 | Cc1ccc2nc(Cl)c(CNCc3ccccc3)cc2c1 |  | inconclusive: 17.3% [activator]
63 | O=c1[nH]c(=O)c2nc(-c3ccc(Cl)cc3)cnc2[nH]1 | inconclusive: 28.2 µM [activator, partial curve] | 
64 | COc1ccc(OCCC(=O)N2CCOCC2)cc1 | inconclusive: 12.6 µM [activator, single point] | 
65 | O=C1Cc2ccccc2C(=O)N1OCc1ccc(Cl)cc1Cl |  | inactive: 4.17%
66 | COCCCNC(=O)c1ccc2c(=O)n(C3CCCC3)c(=S)[nH]c2c1 |  | inconclusive: -19% [inhibitor]
67 | Cn1nc(-c2ccccc2)c(CSc2cccc(Cl)c2)c1Cl | inconclusive: 11.2 µM [inhibitor, single point] | 
